The structures appear in SMILES notation. About 2,200 (0.71%) of roughly 310,000 compounds showed an effect of 50% or more. Effects have a minus sign here. Some of the results follow.

Sequence of human ether-à-go-go-related gene (hERG) potassium channel (Q12809 whole entry, looked up): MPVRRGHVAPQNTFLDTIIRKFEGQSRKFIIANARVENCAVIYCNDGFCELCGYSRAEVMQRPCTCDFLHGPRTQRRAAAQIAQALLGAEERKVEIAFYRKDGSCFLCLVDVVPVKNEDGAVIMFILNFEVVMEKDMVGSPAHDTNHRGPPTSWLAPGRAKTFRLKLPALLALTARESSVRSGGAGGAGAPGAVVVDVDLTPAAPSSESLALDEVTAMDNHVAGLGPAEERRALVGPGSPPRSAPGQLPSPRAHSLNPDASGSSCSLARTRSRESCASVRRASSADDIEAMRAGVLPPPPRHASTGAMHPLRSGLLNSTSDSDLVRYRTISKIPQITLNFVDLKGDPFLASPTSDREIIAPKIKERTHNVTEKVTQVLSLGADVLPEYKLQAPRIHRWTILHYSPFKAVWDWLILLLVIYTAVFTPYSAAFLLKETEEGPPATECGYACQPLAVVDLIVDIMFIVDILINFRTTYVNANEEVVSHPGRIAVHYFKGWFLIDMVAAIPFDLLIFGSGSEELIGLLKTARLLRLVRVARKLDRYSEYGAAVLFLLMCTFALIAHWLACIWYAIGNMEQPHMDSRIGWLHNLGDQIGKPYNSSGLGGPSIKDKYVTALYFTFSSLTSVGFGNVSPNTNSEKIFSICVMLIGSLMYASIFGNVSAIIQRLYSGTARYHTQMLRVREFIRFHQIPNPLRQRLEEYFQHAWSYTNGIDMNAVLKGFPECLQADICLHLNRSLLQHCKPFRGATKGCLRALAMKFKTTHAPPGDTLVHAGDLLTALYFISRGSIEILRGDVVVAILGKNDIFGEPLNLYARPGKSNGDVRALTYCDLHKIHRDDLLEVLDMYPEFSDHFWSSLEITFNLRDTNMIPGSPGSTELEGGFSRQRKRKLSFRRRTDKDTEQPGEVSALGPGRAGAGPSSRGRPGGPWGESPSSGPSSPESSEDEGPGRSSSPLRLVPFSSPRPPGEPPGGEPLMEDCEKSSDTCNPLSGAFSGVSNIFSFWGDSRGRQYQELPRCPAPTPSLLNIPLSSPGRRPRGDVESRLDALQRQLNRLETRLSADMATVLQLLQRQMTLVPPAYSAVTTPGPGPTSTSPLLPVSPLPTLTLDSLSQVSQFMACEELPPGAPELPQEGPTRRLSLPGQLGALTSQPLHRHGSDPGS

This assay concerns the target human ether-à-go-go-related gene (hERG) potassium channel (human, UniProt Q12809). The assay is described as follows: primary screen, population patch clamp on CHO cells stably expressing hERG.
Regarding `CCN(CC(=O)Nc1ccc2c(c1)OCCO2)C(=O)/C=C/c1ccccc1`, the “hERG current change (%, negative = inhibition) at 1uM” value worked out at 17.1%. To `CCCc1ncc(C(O)c2ccccc2OC)n1C` (centres unmarked) belongs 10.6%.

On to `O=C(N/C(=C/c1ccc(Cl)cc1)C(=O)N1CCCCC1)c1ccco1`, for which the “hERG current change (%, negative = inhibition) at 1uM” value is given as -0.117%. To `Nc1c(/C=C2\C=Nc3ccccc32)c(=O)nc2sc(CC(=O)N3CCOCC3)nn12` belongs 22.7%. Consider `C=CCN1C(=O)C2C(C(=O)NC3CCCC3)C3C=CC2(O3)C1C(=O)NC1CCCC1` (centres unmarked), for which the “hERG current change (%, negative = inhibition) at 1uM” value was 20.5%. Consider `O=C(CSC1=NCCS1)Nc1ccc(S(=O)(=O)NC2CCCCC2)cc1`, for which the “hERG current change (%, negative = inhibition) at 1uM” value is given as 2.13%. Consider `CN(CC(=O)Nc1cccc(F)c1)C(=O)c1cc(S(=O)(=O)N2CCCCC2)ccc1N1CCOCC1`, for which the “hERG current change (%, negative = inhibition) at 1uM” value came out at 3.68%.

As for `Cc1cc(F)ccc1S(=O)(=O)N1CCCOC1CNC(=O)C(=O)NCc1cccnc1` (centres unmarked), the “hERG current change (%, negative = inhibition) at 1uM” value is on record as 12.6%. To `O=c1cc(COc2ncnc3ccccc23)nc2sccn12` belongs 0.661%. With `Cc1nc2cc(NC(=O)N(C)c3ccc4ccccc4c3)ccc2o1`, the “hERG current change (%, negative = inhibition) at 1uM” value worked out at 11.4%.

Regarding `CN(CC(=O)NCc1ccccn1)S(=O)(=O)c1ccc2ccccc2c1`, the “hERG current change (%, negative = inhibition) at 1uM” value is given as 3.54%.

`Cc1ccc2cc(CN(CCO)Cc3nnnn3Cc3ccc(F)cc3)c(=O)[nH]c2c1`: the “hERG current change (%, negative = inhibition) at 1uM” value was found to be 4.89%. With `O=C(CC(=O)N/N=C\c1ccccc1[N+](=O)[O-])NCCc1ccccc1`, the “hERG current change (%, negative = inhibition) at 1uM” value is 13.2%. As for `COc1ccc(Cl)cc1C(=O)OCC(=O)NCCNC(=O)COC(=O)c1cc(Cl)ccc1OC`, the “hERG current change (%, negative = inhibition) at 1uM” value is -24.8%. For `CCCCC(=O)N/N=C/c1c(O)n(-c2ccccc2)c(=O)[nH]c1=O`, the “hERG current change (%, negative = inhibition) at 1uM” value was found to be 18.1%.

With `Cc1cccc(Oc2ccc3c(c2)cc(C(=O)O)n3C)c1`, the “hERG current change (%, negative = inhibition) at 1uM” value is 7.28%. Turning to `O=C(NCC(=O)N1CCC2(CC1)NCCc1[nH]cnc12)c1ccc2ccccc2c1`, the “hERG current change (%, negative = inhibition) at 1uM” value is recorded as 9.87%. To `CCN(CC)c1c([N+](=O)[O-])ncn1C` belongs 3.02%; to `Cc1cccc(-n2c(C)cc(C(=S)N3CCOCC3)c2C)c1C`, -3.05%; to `COC(=O)Nc1csc2c1NC(=O)CCCC2`, 14.9%. Turning to `Cc1ccccc1N1CC(C(=O)Nc2nnc(SCC(=O)Nc3nccs3)s2)CC1=O` (centres unmarked), the “hERG current change (%, negative = inhibition) at 1uM” value is given as 7.82%. As for `Cc1cc(N/N=C/c2ccc(O)cc2O)c2ccccc2n1`, the “hERG current change (%, negative = inhibition) at 1uM” value is on record as 12.2%. To `COc1ccc(CCNc2ccc(C(CC(N)=O)NC(=O)Cc3ccc(Br)cc3)cc2[N+](=O)[O-])cc1` (centres unmarked) belongs 7.54%. On to `CCOc1ccc2nc(-c3ccccc3)nc(SCC(=O)Nc3ncc(C)s3)c2c1`, for which the “hERG current change (%, negative = inhibition) at 1uM” value stood at 3.51%. To `CS(=O)(=O)NCc1nnc(SCc2c(F)cccc2Cl)o1` belongs -1.52%; to `Cc1noc(C)c1S(=O)(=O)Nc1ccc(C(=O)NCCc2ccccc2)cc1`, 7.23%; to `COc1ccc(N2CCN(C(=O)NCc3ccc(OC)c(Cl)c3)CC2)cc1`, 2.4%. As to `Cc1ccc(N2C(=O)N(CC(=O)Nc3cc(C)cc(C)c3)C(=O)C2C)cc1` (centres unmarked), the “hERG current change (%, negative = inhibition) at 1uM” value is on record as 22.3%.

Turning to `COC(=O)c1ccc(COc2ccccc2/C=N/NC(N)=O)o1`, the “hERG current change (%, negative = inhibition) at 1uM” value was determined as 11%. For `Cc1ccc(C2CC(=O)C=C(Nc3ccc(Cl)cc3)C2)cc1` (centres unmarked), the “hERG current change (%, negative = inhibition) at 1uM” value worked out at 10.4%. Turning to `CN1CCN(S(=O)(=O)c2cccc(C(=O)O)c2)CC1`, the “hERG current change (%, negative = inhibition) at 1uM” value amounted to 13.5%. Take `CCN(CC(=O)Nc1ccc2c(c1)OCCO2)C(=O)CCc1ccccc1Cl`: the “hERG current change (%, negative = inhibition) at 1uM” value is reported as -1.51%. To `CN(C)c1ccc(/C=N/NC(N)=S)cc1[N+](=O)[O-]` belongs 7.7%; to `COc1ccc(-c2cc(-c3ccc(Cl)cc3)c(C#N)c(SCC(=O)O)n2)cc1`, 3.81%. To `CCc1nc(SCC(=O)N2CCCCC2)c2c(=O)n(C)c(=O)n(C)c2n1` belongs 3.91%; to `CCN(CC)c1ccc(-c2nn3c(-c4n[nH]c5c4CCC5)nnc3s2)cc1`, 9.19%. To `O=C(c1ccc(Br)o1)N1CCN(Cc2ccccc2Cl)CC1` belongs 13%. Regarding `CC1(C)Cc2c(c(N3CCOCC3)nc3sc(C(=O)Nc4cccc(Cl)c4)c(N)c23)CO1`, the “hERG current change (%, negative = inhibition) at 1uM” value is on record as 12.4%.

Regarding `Clc1cc(Br)ccc1OCCOCCOc1cccc2cccnc12`, the “hERG current change (%, negative = inhibition) at 1uM” value was 10%.

Consider `COc1ccc(C2=NN(CC(=O)NCC(OC)OC)C(=O)CC2)cc1`, for which the “hERG current change (%, negative = inhibition) at 1uM” value is recorded as 4.65%. Take `CC(=O)Nc1ccc(OCCOc2ccccc2C(C)=O)cc1`: the “hERG current change (%, negative = inhibition) at 1uM” value was found to be 7.99%. Consider `Cc1[nH]c2ccccc2c1C(=O)C(=O)NCc1cccs1`, for which the “hERG current change (%, negative = inhibition) at 1uM” value is reported as 2.73%.

As for `Nc1n[nH]c2ccccc12`, the “hERG current change (%, negative = inhibition) at 1uM” value turned out to be 14.4%. Consider `CN1CCN(C(=O)c2cc(COc3c(F)cccc3F)on2)CC1c1ccccc1` (centres unmarked), for which the “hERG current change (%, negative = inhibition) at 1uM” value is recorded as -2.64%.

The values above are taken from PMC4336329 (PLoS ONE, 2015).
